# In all, about 91,000 compounds went through this assay and about 290 (0.32%) were called active. The inconclusive results got no clear call from the source; some entries with a clear call stand among them for comparison. Calls follow the shape of the dose curve; as a rule, active = well fitted inhibition curve with a large enough effect; inconclusive = small, poorly fitted or top-dose-only effect; inactive = no such curve, though single readings can be large or run the other way. Potencies beside an inconclusive call are fits to weak or partial responses and may not hold up.
# Target: Single-stranded DNA cytosine deaminase (Homo sapiens) (UniProt Q9GZX7)
# Test: Primary qHTS assay for inhibitors of Activation Induced Cytidine Deaminase (AID): AID signal; also: nearly all actives have a fitted effect of over 25% in size
# Details: AID deamination FRET fluorescence, UDG-coupled, 4 h; series mostly up to 115 µM
# Potency is read from the fitted curve at half-maximal effect; tags tell the direction and shape of the fitted curve.
# Sequence of UniProt Q9GZX7 (Q9GZX7 whole entry, looked up): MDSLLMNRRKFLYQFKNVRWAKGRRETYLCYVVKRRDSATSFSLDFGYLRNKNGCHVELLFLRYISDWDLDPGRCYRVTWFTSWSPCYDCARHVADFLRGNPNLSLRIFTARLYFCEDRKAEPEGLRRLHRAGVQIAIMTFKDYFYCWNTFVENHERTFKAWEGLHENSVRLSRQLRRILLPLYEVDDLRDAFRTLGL
row,SMILES,Potency
1,Cc1ccc(S(=O)Cc2nc(-c3ccc(C(=O)NC(C)c4ccccc4)cc3)oc2C)cc1 (stereo not drawn),"inconclusive: 35.5 µM [inhibitor, partial curve]"
2,Cn1nc(C(F)(F)F)c(Cl)c1C(=O)Nc1sc2c(c1C#N)CCCC2,inactive
3,Cc1cc(C)c2[nH]c(-c3ccccc3)c(-c3ccccc3)c2c1,inactive
4,COc1cccc(CNC(=O)c2c3c(nc4ccccc24)C(=O)N(C2CCCCC2)C3)c1,"inconclusive: 35.5 µM [inhibitor, full curve]"
5,CCn1cc(C(=O)N2CCN(c3ccccc3)CC2)c(=O)c2cc(S(=O)(=O)N3CCC(C)CC3)ccc21,"inconclusive: 56.2 µM [inhibitor, partial curve, poor fit]"
6,COc1cccc(NC(=O)C2CCN(S(=O)(=O)c3cc(-c4noc(C)n4)ccc3C)CC2)c1,"inconclusive: 28.2 µM [inhibitor, full curve, poor fit]"
7,CCc1cc2c(C)cc(=O)oc2cc1OCC(=O)c1ccccc1,inactive
8,Cc1sc(NC(=O)COc2ccc(C(C)(C)C)cc2)c(C(=O)OC(C)C)c1C,"inconclusive: 50.1 µM [inhibitor, partial curve, poor fit]"
9,CCN(Cc1ccccc1)C(=O)CCS(=O)(=O)c1ccc2c(c1)oc(=O)n2C,"inconclusive: 39.8 µM [inhibitor, single point]"
10,CCN1CCN(CCC(=O)Nc2sc(-c3ccccc3)cc2C(=O)OC)CC1,inactive
11,CC(C)c1nnc(NC(=O)c2nc(S(=O)(=O)Cc3ccccc3)ncc2Cl)s1,"inconclusive: 6.31 µM [inhibitor, full curve, poor fit]"
12,Cc1cc2c(s1)CCc1cc(C(=O)NC3CCCCC3)sc1-2,inactive
13,COc1ccc(N(CC(=O)N2CCN(c3cccc(OC)c3)CC2)S(=O)(=O)c2c(C)noc2C)cc1,"inconclusive: 35.5 µM [inhibitor, partial curve]"
14,COc1ccc(NC(=O)c2ccc(S(=O)(=O)NCC3CCCO3)cc2)cc1 (stereo not drawn),inactive
15,N[C@@H](CCC(=O)N[C@H](CSN=O)C(=O)NCC(=O)O)C(=O)O,inactive
16,Cc1ccccc1OCC(=O)N(Cc1ccc(C(C)C)cc1)C1CCS(=O)(=O)C1 (stereo not drawn),"inconclusive: 56.2 µM [inhibitor, partial curve, poor fit]"
17,O=C(NCc1ccccn1)C1CC2CCC1C2 (stereo not drawn),inactive
18,CCOCCCNC(=S)NC1CC1,inactive
19,COc1cc2c(cc1OC)C(COc1ccc(C(C)C)cc1)N(C(=O)COc1ccccc1)CC2 (stereo not drawn),"inconclusive: 20 µM [inhibitor, full curve, poor fit]"
20,CC(C)NC(=O)c1sc2ncccc2c1-n1cccc1,"inconclusive: 100 µM [inhibitor, single point]"
21,Cn1c2ccc(F)cc2c2nnc(SCCN3CCCCC3)nc21,"inconclusive: 89.1 µM [inhibitor, single point]"
22,CCOc1ccccc1N(CC)C(=O)c1cc2ccc3cccnc3c2[nH]1,"inconclusive: 56.2 µM [inhibitor, partial curve, poor fit]"
23,CCN(C(=O)c1cc2c(Cl)nc3ccc(C)cc3c2s1)c1cc(OC)ccc1OC,"inconclusive: 17.8 µM [inhibitor, full curve]"

row,SMILES,Potency
1,Cc1oc(-c2cccc(Cl)c2)nc1CSCC(=O)O,"inconclusive: 22.4 µM [inhibitor, full curve, poor fit]"
2,CCCCN(CCCC)c1nc(-c2ccccc2)nc2ccccc12,inactive
3,COc1ccc(CCC(=O)NCc2ccc3c(c2)CCN3C(=O)c2cccc(C)c2)cc1,"inconclusive: 56.2 µM [inhibitor, partial curve, poor fit]"
4,O=C(CSc1nnc(-c2ccc3c(c2)OCO3)o1)NC1CCCC1,"inconclusive: 100 µM [inhibitor, partial curve, poor fit]"
5,Cc1cc(NC(=O)CN(c2cccc(C)c2C)S(=O)(=O)c2ccccc2)ccc1Br,"inconclusive: 11.2 µM [inhibitor, full curve, poor fit]"
6,CCCSCCCNC(=O)CN1C(=O)COc2ccc(S(=O)(=O)N3CCCCCC3)cc21,"inconclusive: 89.1 µM [inhibitor, single point]"
7,CCOc1ccccc1Nc1ccc2cc(S(=O)(=O)N3CCCCC3)ccc2n1,"inconclusive: 17.8 µM [inhibitor, full curve, poor fit]"
8,CCOC(=O)c1c(C)oc2nc(C)nc(NCCc3ccc(S(N)(=O)=O)cc3)c12,"inconclusive: 31.6 µM [inhibitor, partial curve, poor fit]"
9,Cc1ccc(S(=O)(=O)N2CCN(CCNC(=O)COc3ccccc3)CC2)cc1,inactive
10,O=C(/C=C/c1ccco1)Nc1ccc(SC2CCCC2)cc1,inactive
11,CCc1cccc(C)c1NS(=O)(=O)c1ccc(-n2cccn2)cc1,inactive
12,Cc1ccc(C2=NC(c3ccccc3)=Nc3ccc(Cl)cc3N2)cc1,inactive
13,CCOCCCNc1nc2c(c(=O)[nH]c(=O)n2C)n1Cc1ccccc1Cl,inactive
14,O=S(=O)(Nc1ccc(F)cc1F)c1ccc(-n2cccn2)cc1,inactive
15,Cc1cccc(N2CCN(C(=O)C3CCN(c4ncnc5c4nc4n5CCCCC4)CC3)CC2)c1C,"inconclusive: 50.1 µM [inhibitor, partial curve, poor fit]"
16,Cc1oc2cc(OCC(=O)N3CCCCCC3)ccc2c(=O)c1-c1ccc(Cl)cc1,"inconclusive: 79.4 µM [inhibitor, partial curve]"
17,CCOC(=O)c1ccc(NC(=O)Cn2c(=O)cc(C(F)(F)F)c3c(C)nn(C)c32)cc1,"inconclusive: 89.1 µM [inhibitor, single point]"
18,C[N+]1(CCCCCCCCCCCCCO)CCCC1,inactive
19,COc1cc(NC(=O)CNS(=O)(=O)c2cccs2)cc(OC)c1OC,"inconclusive: 100 µM [inhibitor, single point]"
20,N#C/C(=C/c1ccc(O)cc1)c1nc(C2CC2)cs1,inactive
21,CCCN(CCC)S(=O)(=O)c1ccc(C(=O)Nc2cccc(-c3nc4ccccc4[nH]3)c2)cc1,"inconclusive: 39.8 µM [inhibitor, single point]"
22,Cc1cc(C)c2c(CC(=O)Nc3ccc(S(=O)(=O)N4CCCCC4)cc3)coc2c1,"inconclusive: 15.8 µM [inhibitor, full curve, poor fit]"
23,Cc1cccc(CSCc2ccc(C(=O)NCCc3ccccc3)o2)c1,"inconclusive: 35.5 µM [inhibitor, partial curve, poor fit]"

row,SMILES,Potency
1,CC(C)(C)c1ccc(C(=O)NCC(c2cccs2)S(=O)(=O)c2cccs2)cc1 (stereo not drawn),"inconclusive: 56.2 µM [inhibitor, partial curve, poor fit]"
2,COc1ccccc1NC(=O)Cn1nc(-c2ccc(C)cc2)c2c(c1=O)CCCC2,"inconclusive: 79.4 µM [inhibitor, single point]"
3,CC(C)(C)c1ccc(/C=C/C(=O)Nc2ccc(S(N)(=O)=O)cc2)cc1,inactive
4,Cc1ccc(NC(=O)/C(C#N)=C/c2ccc(-c3ccc(Cl)c(C(=O)O)c3)o2)cc1C,active: 79.4 µM
5,CC(C)NC(=O)C1CCC(Cn2c(=O)c3sccc3n(Cc3ccc(F)cc3)c2=O)CC1 (stereo not drawn),inactive
6,O=C(NCC(c1cccnc1)N1CCc2ccccc21)c1cccc(Br)c1 (stereo not drawn),"inconclusive: 56.2 µM [inhibitor, partial curve, poor fit]"
7,COc1cc(OC)cc(C(=O)/C(=C/c2ccccn2)c2nc3ccccc3o2)c1,inactive
8,CCC(Oc1ccccc1)C(=O)Nc1nnc(S(=O)(=O)N(CC)CC)s1 (stereo not drawn),"inconclusive: 89.1 µM [inhibitor, single point]"
9,Cc1cccc(NC(=O)c2ccc(-c3ccccc3)s2)c1,inactive
10,O=C(CC1N=C2c3ccccc3N=C(SCc3ccc(F)cc3)N2C1=O)NCc1ccc2c(c1)OCO2 (stereo not drawn),"inconclusive: 44.7 µM [inhibitor, partial curve, poor fit]"
11,O=C(CCCn1c(=O)c2cccn2c2ccc(Br)cc21)N1CCN(c2ccccn2)CC1,"inconclusive: 22.4 µM [inhibitor, partial curve, poor fit]"
12,Cc1cccc(Cn2c(=O)n3nc(-c4ccccc4)nc3c3ccccc32)c1,active: 79.4 µM
13,Cc1cc(C)n(-c2nnc(Nc3ccc(C)c(C)c3)c3ccccc23)n1,"inconclusive: 50.1 µM [inhibitor, partial curve, poor fit]"
14,O=C(Nc1ccc(C(F)(F)C(F)(F)C(F)(F)F)oc1=O)c1ccccc1,inactive
15,COc1ccc(-c2c(C#N)c(SCC(=O)Nc3ccccc3C)nc(C)c2C(=O)Nc2ccc(Cl)cc2)cc1,inactive
16,O=C(CCS(=O)(=O)c1cc2c3c(c1)CCN3C(=O)CC2)N1CCN(c2ccccc2)CC1,inactive
17,Brc1ccc2[nH]c3c(c2c1)CCCCC3,inactive
18,Cc1ccccc1S(=O)(=O)Cc1ccc(C(=O)N2CCN(c3cccc(Cl)c3)CC2)o1,"inconclusive: 56.2 µM [inhibitor, single point]"
19,Cc1cccc(CCCCCCCCCCCC(=O)O)c1,"inconclusive: 79.4 µM [inhibitor, partial curve]"
20,C=Cc1c(C)c2cc3[nH]c(cc4nc(cc5nc(cc1[nH]2)C(C)=C5CCC(=O)O)C(CCC(=O)O)=C4C)c(C)c3C=C,"inconclusive: 79.4 µM [inhibitor, partial curve, poor fit]"
21,CCc1ccc(Nc2nc(N)nc(CSc3nc4ccccc4s3)n2)cc1,"inconclusive: 50.1 µM [inhibitor, partial curve, poor fit]"
22,O=C(NCCC1=CCCCC1)c1ccc2c(c1)ncn2-c1ccc(F)c(F)c1,"inconclusive: 79.4 µM [inhibitor, partial curve, poor fit]"
